Data on four molecules can be found in patent publication CN116284427A (SUNSHINE GUOJIAN PHARMACEUTICAL SHANGHAI CO LTD, dated 2023).

One assay addresses MUC17 on LS174T cells (human, UniProt Q685J3). Kind of assay: flow cytometry on LS174T cells, PE goat anti-human Fc. (A flow cytometer gives signals particle by particle.)
In assay [1] the target is CD3 (CD3-TCR complex) on Promega PD1 effector cells (Jurkat T cells) (human). Kind of assay: cell-based or functional assay.
Assay [2] deals with T1, Human CD3 epsilon&CD3 delta Heterodimer Protein (human, UniProt P07766 23-126; P04234 22-105).
T1 construct: Bought heterodimer; also called Human CD3 epsilon&CD3 delta Heterodimer蛋白; CD3抗原
T1 sequence (P07766 23-126, stated change not applied, chain 1 of 2): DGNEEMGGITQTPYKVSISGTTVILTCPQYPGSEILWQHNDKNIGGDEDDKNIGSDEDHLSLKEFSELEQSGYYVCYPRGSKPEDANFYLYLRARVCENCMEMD
T1 sequence (P04234 22-105, stated change not applied, chain 2 of 2, further chain): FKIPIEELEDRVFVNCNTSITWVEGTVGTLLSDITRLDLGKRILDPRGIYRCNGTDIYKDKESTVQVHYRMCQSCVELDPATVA
The experiment in a line: ELISA, CD3 epsilon/delta heterodimer coated at 50 ng/mL, HRP goat anti-human Fc. (In general: ELISA stands for enzyme-linked immunosorbent assay.)

B1: anti-MUC17×CD3 BsAb CM1 (bispecific antibody, human IgG1, kappa)
heavy: QVQLVQSGAEVKKPGASVKVSCKASGYSFTIYWMHWVRQAPGQGLEWIGMSHPSDSESRLNQKFKDRATLTVDKSTSTAYMELSSLRSEDTAVYYCSRPYYGSSAWFADWGQGTLVTVSA[human IgG1 constant region not printed]GGGGSGGGGSGGGGSQAVVTQEPSLTVSPGGTVTLTCRSSTGAVTTSNYANWVQQKPGQAPRGLIGGTNKRAPGVPARFSGSLLGGKAALTLSGAQPEDEAEYYCALWYSNLWVFGQGTKVEIKGGGGSGGGGSGGGGSGGGGSEVQLVESGGGLVQPGGSLRLSCAASGFTFNTYAMNWVRQAPGKGLEWVARIRSKYNNYATYYADSVKDRFTISRDDSKNTLYLQMNSLRAEDTAVYYCVRHGNFGNSYVSWFAYWGQGTLVTVSS
light: DIVMTQSPDSLAVSLGERATINCKSSQSLLNSSNQKNYLAWYQQKPGQSPKLLIYFASTRESGVPDRFSGSGSGTDFTLTISSLQAEDVAVYYCQQHYSFPLTFGAGTKLELRRTVAAPSVFIFPPSDEQLKSGTASVVCLLNNFYPREAKVQWKVDNALQSGNSQESVTEQDSKDSTYSLSSTLTLSKADYEKHKVYACEVTHQGLSSPVTKSFNRGEC
notes: copies follow the symmetric IgG format (structure A: 2 heavy, 2 light)
As to B1, the binding result with MUC17 on LS174T cells is recorded as “binds”. In assay [1], the “EC 50” value was found to be 4.95 nM and the Top was 28300. Further, the binding result in assay [2] was “binds”.

B2: anti-MUC17×CD3 BsAb CM4 (bispecific antibody, human IgG1, kappa)
heavy: QAVVTQEPSLTVSPGGTVTLTCRSSTGAVTTSNYANWVQQKPGQAPRGLIGGTNKRAPGVPARFSGSLLGGKAALTLSGAQPEDEAEYYCALWYSNLWVFGQGTKVEIKGGGGSGGGGSGGGGSGGGGSEVQLVESGGGLVQPGGSLRLSCAASGFTFNTYAMNWVRQAPGKGLEWVARIRSKYNNYATYYADSVKDRFTISRDDSKNTLYLQMNSLRAEDTAVYYCVRHGNFGNSYVSWFAYWGQGTLVTVSSGGGGSGGGGSGGGGSQVQLVQSGAEVKKPGASVKVSCKASGYSFTIYWMHWVRQAPGQGLEWIGMSHPSDSESRLNQKFKDRATLTVDKSTSTAYMELSSLRSEDTAVYYCSRPYYGSSAWFADWGQGTLVTVSA[human IgG1 constant region not printed]
light: DIVMTQSPDSLAVSLGERATINCKSSQSLLNSSNQKNYLAWYQQKPGQSPKLLIYFASTRESGVPDRFSGSGSGTDFTLTISSLQAEDVAVYYCQQHYSFPLTFGAGTKLELRRTVAAPSVFIFPPSDEQLKSGTASVVCLLNNFYPREAKVQWKVDNALQSGNSQESVTEQDSKDSTYSLSSTLTLSKADYEKHKVYACEVTHQGLSSPVTKSFNRGEC
Regarding B2, the binding result with MUC17 on LS174T cells is “binds”. Also, in assay [1], the “EC 50” value was 3.17 nM and the Top is 24000. Besides, the binding result in assay [2] is “binds”.

B3: anti-MUC17×CD3 BsAb CM3 (bispecific antibody, human IgG1, kappa)
heavy: EVQLVESGGGLVQPGGSLRLSCAASGFTFNTYAMNWVRQAPGKGLEWVARIRSKYNNYATYYADSVKDRFTISRDDSKNTLYLQMNSLRAEDTAVYYCVRHGNFGNSYVSWFAYWGQGTLVTVSSGGGGSGGGGSGGGGSGGGGSQAVVTQEPSLTVSPGGTVTLTCRSSTGAVTTSNYANWVQQKPGQAPRGLIGGTNKRAPGVPARFSGSLLGGKAALTLSGAQPEDEAEYYCALWYSNLWVFGQGTKVEIKGGGGSGGGGSGGGGSQVQLVQSGAEVKKPGASVKVSCKASGYSFTIYWMHWVRQAPGQGLEWIGMSHPSDSESRLNQKFKDRATLTVDKSTSTAYMELSSLRSEDTAVYYCSRPYYGSSAWFADWGQGTLVTVSA[human IgG1 constant region not printed]
light: DIVMTQSPDSLAVSLGERATINCKSSQSLLNSSNQKNYLAWYQQKPGQSPKLLIYFASTRESGVPDRFSGSGSGTDFTLTISSLQAEDVAVYYCQQHYSFPLTFGAGTKLELRRTVAAPSVFIFPPSDEQLKSGTASVVCLLNNFYPREAKVQWKVDNALQSGNSQESVTEQDSKDSTYSLSSTLTLSKADYEKHKVYACEVTHQGLSSPVTKSFNRGEC
Turning to B3, the binding result with MUC17 on LS174T cells was “binds”. Besides, in assay [1], the “EC 50” value was 1.76 nM and the Top is 28400. The binding result in assay [2] is on record as “binds”.

B4: anti-MUC17×CD3 BsAb CM2 (bispecific antibody, human IgG1, kappa)
heavy: QVQLVQSGAEVKKPGASVKVSCKASGYSFTIYWMHWVRQAPGQGLEWIGMSHPSDSESRLNQKFKDRATLTVDKSTSTAYMELSSLRSEDTAVYYCSRPYYGSSAWFADWGQGTLVTVSA[human IgG1 constant region not printed]GGGGSGGGGSGGGGSEVQLVESGGGLVQPGGSLRLSCAASGFTFNTYAMNWVRQAPGKGLEWVARIRSKYNNYATYYADSVKDRFTISRDDSKNTLYLQMNSLRAEDTAVYYCVRHGNFGNSYVSWFAYWGQGTLVTVSSGGGGSGGGGSGGGGSGGGGSQAVVTQEPSLTVSPGGTVTLTCRSSTGAVTTSNYANWVQQKPGQAPRGLIGGTNKRAPGVPARFSGSLLGGKAALTLSGAQPEDEAEYYCALWYSNLWVFGQGTKVEIK
light: DIVMTQSPDSLAVSLGERATINCKSSQSLLNSSNQKNYLAWYQQKPGQSPKLLIYFASTRESGVPDRFSGSGSGTDFTLTISSLQAEDVAVYYCQQHYSFPLTFGAGTKLELRRTVAAPSVFIFPPSDEQLKSGTASVVCLLNNFYPREAKVQWKVDNALQSGNSQESVTEQDSKDSTYSLSSTLTLSKADYEKHKVYACEVTHQGLSSPVTKSFNRGEC
Turning to B4, in assay [1], the “EC 50” value turned out to be 4.8 nM and the Top came to 54400. Further, in assay [2], the binding result was “binds”.
